# Measured values published in publication PMC5836133.
# This is one part of the list. At the low end of the ranking the order means little.
# Tested on: T1, GST-NbGlk1(82-244)
# T1 sequence: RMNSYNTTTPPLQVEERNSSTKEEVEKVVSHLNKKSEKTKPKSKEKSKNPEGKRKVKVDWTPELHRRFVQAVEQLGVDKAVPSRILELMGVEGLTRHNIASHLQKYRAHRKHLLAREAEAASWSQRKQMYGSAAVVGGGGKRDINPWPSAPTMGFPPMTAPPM
# Assay: protein-binding microarray;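 note: rank-based score ranging −0.5 to +0.5 with E above 0.45 taken as significant binding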
# Details: NbGlk1 is a Golden2-like transcription factor of Nicotiana benthamiana; high values mean tight binding; most listed sequences are background and not binding sites; double strand, one strand shown
row,Sequence,binding signal [E-score]
1,ACAGGGTC,-0.265
2,AGCAAACC,-0.0864
3,ACTACTTG,-0.0281
4,AGTTTTTC,0.0674
5,ATTGAGAC,-0.00411
6,ACTTATAT,0.0791
7,ATCGCCAT,0.0934
8,AATCTACA,0.401
9,AACTACTC,0.0626
10,ATAGCACC,-0.138
11,AACAACGT,0.0457
12,ATAGGGGG,-0.229
13,ATCGGTAC,0.0488
14,ACCCATCT,-0.0776
15,ACGCTAGA,0.0372
16,ACCGCCAA,-0.0686
17,ACCTGAAC,-0.2
18,CAGATTGC,0.475
19,ACCTTCAC,-0.0968
20,ATATATTC,0.281
21,ATGGATTC,0.425
22,AGGCCGAA,-0.155
23,ATTGTGCA,0.189
24,ATCATTAA,0.138
25,ACGTATTG,0.179

row,Sequence,binding signal [E-score]
1,ACGGCGGA,-0.0789
2,ATTATCGC,0.111
3,ATAACCGG,-0.223
4,ATAATTCG,-0.0509
5,ATAGAGGC,-0.118
6,ATGGTACC,-0.0488
7,ACCAGATA,0.268
8,AGAGGCGG,-0.186
9,AGATCTCG,0.431
10,AGTGGTTA,-0.0373
11,ATTGTACA,0.0744
12,AACCAGTT,-0.177
13,ACTCGTAC,-0.158
14,AATAACTC,0.0143
15,ATCACGAA,0.216
16,ATTAAAAT,0.146
17,AGTCTCAG,-0.214
18,ATCCGTTC,0.161
19,ATACCACC,0.0912
20,ACCCGGCA,-0.238
21,ACGAAAAT,0.272
22,ACAAGAGG,-0.132
23,ACCCACCG,-0.0966
24,ACTACCCC,-0.202
25,ACCTCTGA,0.00915

row,Sequence,binding signal [E-score]
1,ATACCGGA,0.000813
2,AACTCAGG,0.0375
3,ATAGGCTG,-0.135
4,ATAAAGTC,-0.169
5,AGAGTGCA,-0.0203
6,AATTAGAT,0.224
7,AATGCCCG,-0.158
8,AAGATAAT,0.221
9,AAAAATAC,0.0995
10,CAGAGGGA,-0.0455
11,AGGTTGCA,-0.15
12,ACTAACGC,-0.137
13,ACGGGTTG,-0.17
14,ACTCTTAC,0.0157
15,ATTCTCCC,0.255
16,AACAATTA,0.128
17,AGGTTGTG,-0.0975
18,CAGAGCTA,-0.0747
19,ACGGTACT,-0.0728
20,ACACAACC,-0.0794
21,ATCCCGGC,0.00281
22,AGTGATAC,0.0957
23,ACTTTGTG,-0.0662
24,ACGTTCGA,-0.0635
25,ACTTCACA,0.102

row,Sequence,binding signal [E-score]
1,AGTAGAGC,-0.157
2,ACTAAAGA,0.103
3,AGGTAAAC,0.0486
4,CAACTAAG,-0.224
5,AAGTTCCG,-0.058
6,CACCTTGC,-0.206
7,AGCATATC,0.352
8,AGAGCGGC,-0.271
9,ATGGTAAC,-0.115
10,ACTCGTCT,-0.101
11,AACCTGAC,-0.216
12,AAACGGAT,0.245
13,AGAACCAG,-0.159
14,ACGCCCAG,-0.215
15,ATTTCCCA,0.329
16,ATATGGTC,0.102
17,AGCGCAAC,-0.0604
18,AAAAGGAT,0.151
19,AACTGCGA,-0.00729
20,AGCTCGAT,-0.0429
21,ATATTGGG,0.111
22,AAGGTATC,0.176
23,CACAGTAA,0.0441
24,CAGACTAA,-0.155
25,ATACGATC,0.247

row,Sequence,binding signal [E-score]
1,ACCTCGAA,-0.0229
2,ATTACCGC,0.289
3,CAATCCCA,0.279
4,AGCATGCA,-0.157
5,CAATTCAG,0.0635
6,ATGGTCCC,-0.121
7,AGGCTTAA,-0.141
8,CAATCTAG,0.374
9,ATAACGCG,0.0605
10,AGCACAAC,-0.0284
11,AAGTTCAT,-0.0297
12,AGTCAGTC,-0.223
13,ACTAAAAT,0.281
14,CACGCGTG,0.0359
15,ACTTGTGC,-0.218
16,AGCGTCAG,-0.154
17,CAAGCCTC,-0.288
18,AAGCACTA,-0.0739
19,AAAATTTT,0.271
20,ACAAAAAG,0.0571
21,AACTTACT,-0.0295
22,ATGCGAGA,0.0136
23,ACGCGTAG,-0.00126
24,AGGACCAA,-0.162
25,ATAAAACA,0.0799

row,Sequence,binding signal [E-score]
1,ATTGTGAA,0.169
2,ACTGCGAC,-0.138
3,AGTCTAAG,0.0387
4,AGATTGGC,0.173
5,ACTTCGGA,-0.136
6,AAAACGTT,-0.0539
7,AAAAGTCC,-0.137
8,AACGTTTG,-0.0367
9,ACTGCATA,0.0335
10,ATACTCGC,0.102
11,CAATTCGG,0.0142
12,ACCCGGAT,0.197
13,ATGCGCGC,0.011
14,AATTGGGT,0.0071
15,AAGGACAC,-0.249
16,AAGATCCG,0.332
17,AGGATTGC,0.45
18,CAGACTGC,-0.211
19,CAAATTGC,0.0752
20,ATATCTTA,0.408
21,AGATCATG,0.121
22,AGGGATGA,-0.0992
23,AATCTATC,0.366
24,ACTACTTC,-0.00335
25,ATCGCCCA,0.175

row,Sequence,binding signal [E-score]
1,AAGAGAAC,-0.118
2,ACGAGCCA,-0.172
3,AACGTCAT,-0.0559
4,AAGACTCT,-0.238
5,CACTCGTA,0.0544
6,CACGCGGA,-0.0595
7,ACCTACAT,0.102
8,ATGCACGG,-0.0415
9,ATGGGCGA,-0.0147
10,CAGCCCCC,-0.332
11,AGTTACTG,0.0146
12,ACGGACCT,-0.323
13,ATTTAGCA,0.136
14,AGTTAACT,-0.051
15,ACGTGAAT,0.0505
16,ACCCAAGC,-0.257
17,CACCCAAC,-0.112
18,AGACAGTC,-0.29
19,CACAACGA,0.176
20,ATTAGGCG,-0.023
21,ACTAGCCA,-0.177
22,ATTAAACC,-0.0527
